Hit rate of the full screen: of about 220,000 compounds, about 5,700 (2.6%) were called active. The inconclusive results got no clear call from the source; some entries with a clear call stand among them for comparison. Calls come from the whole dose curve; as a rule, active = well fitted inhibition curve with a large enough effect; inconclusive = small, poorly fitted or top-dose-only effect; inactive = no such curve, though single readings can be large or run the other way. Potencies of inconclusive entries are doubtful fits and often do not repeat.
target: Lysine-specific demethylase 5B (Homo sapiens) (UniProt Q9UGL1); experiment: Primary screen for KDM5B Histone Demethylases FDH-coupled qHTS; settings: FDH-coupled NADH fluorescence (FDH is formaldehyde dehydrogenase); activity change, negative = inhibition: at 57.7 µM (top of the series) unless noted; note: nearly all actives have a fitted effect of over 70% in size; for activity change, negative = inhibition: 0% is about no effect
Summary of the method: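 KDM5BΔAP (200 nM final) in 50 mM HEPES pH 7.5, 0.01% Tween-20 was preincubated 10 min at RT with compound over a concentration range. Substrate mix (H3K4me3 12.5 µM, α-KG 25 µM, Fe²⁺, ascorbate, NAD⁺, FDH) was added, and NADH fluorescence change over 30 min gave dose-response curves.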
Potency is the fitted concentration of half-maximal effect; tags give direction and shape of the fitted curve.

UniProt Q9UGL1, sequence (Q9UGL1 whole entry, looked up): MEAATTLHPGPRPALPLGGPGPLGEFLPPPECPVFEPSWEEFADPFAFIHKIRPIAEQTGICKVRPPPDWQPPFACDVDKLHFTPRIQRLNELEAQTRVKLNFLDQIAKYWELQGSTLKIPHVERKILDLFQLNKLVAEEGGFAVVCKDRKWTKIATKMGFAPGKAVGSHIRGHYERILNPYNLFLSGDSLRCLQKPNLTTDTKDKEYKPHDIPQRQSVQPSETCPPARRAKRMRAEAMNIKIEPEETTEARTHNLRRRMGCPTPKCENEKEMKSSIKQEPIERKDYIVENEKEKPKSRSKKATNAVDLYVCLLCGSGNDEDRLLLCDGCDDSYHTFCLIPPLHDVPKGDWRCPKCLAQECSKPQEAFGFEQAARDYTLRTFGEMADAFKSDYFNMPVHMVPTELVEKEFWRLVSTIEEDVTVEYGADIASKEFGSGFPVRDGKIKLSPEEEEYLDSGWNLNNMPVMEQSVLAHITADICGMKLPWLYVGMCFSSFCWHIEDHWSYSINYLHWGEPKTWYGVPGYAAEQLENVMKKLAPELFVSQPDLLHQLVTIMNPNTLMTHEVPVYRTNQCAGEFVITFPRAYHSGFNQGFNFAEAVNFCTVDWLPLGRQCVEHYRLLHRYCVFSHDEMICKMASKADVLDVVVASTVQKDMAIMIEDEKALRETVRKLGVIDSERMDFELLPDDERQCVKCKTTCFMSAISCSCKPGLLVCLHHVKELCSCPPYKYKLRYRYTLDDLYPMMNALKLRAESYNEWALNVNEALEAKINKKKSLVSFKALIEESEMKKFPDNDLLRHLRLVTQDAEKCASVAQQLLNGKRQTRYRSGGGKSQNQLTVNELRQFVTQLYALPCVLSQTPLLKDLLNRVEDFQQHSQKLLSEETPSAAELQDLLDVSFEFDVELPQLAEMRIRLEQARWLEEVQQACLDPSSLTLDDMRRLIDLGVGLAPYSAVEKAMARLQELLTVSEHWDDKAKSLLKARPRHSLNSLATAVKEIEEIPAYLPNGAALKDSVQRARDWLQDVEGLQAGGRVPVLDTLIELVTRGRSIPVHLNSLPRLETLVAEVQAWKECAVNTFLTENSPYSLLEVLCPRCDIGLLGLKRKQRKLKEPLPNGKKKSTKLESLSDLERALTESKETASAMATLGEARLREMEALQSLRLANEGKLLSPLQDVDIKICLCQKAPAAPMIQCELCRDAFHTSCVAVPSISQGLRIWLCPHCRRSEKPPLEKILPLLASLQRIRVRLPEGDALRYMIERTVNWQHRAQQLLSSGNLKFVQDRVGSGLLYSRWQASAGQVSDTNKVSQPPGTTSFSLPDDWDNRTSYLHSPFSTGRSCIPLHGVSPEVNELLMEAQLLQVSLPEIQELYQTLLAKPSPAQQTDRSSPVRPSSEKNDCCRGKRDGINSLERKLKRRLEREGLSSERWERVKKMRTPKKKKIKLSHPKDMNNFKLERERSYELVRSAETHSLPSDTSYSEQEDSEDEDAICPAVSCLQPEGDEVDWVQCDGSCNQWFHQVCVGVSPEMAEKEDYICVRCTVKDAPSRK

| Compound | activity change, negative = inhibition | Potency |
| --- | --- | --- |
| CCOc1ccc(-c2cc(C(=O)NCc3ccccc3Cl)c3ccccc3n2)cc1 | inconclusive: -57.2% [inhibitor] | – |
| CCn1cc(S(=O)(=O)c2ccccc2)c(=O)c2cc(F)c(N3CCCC3)cc21 | – | inconclusive: 17.8 µM [inhibitor, partial curve, poor fit] |
| O=C(CN(Cc1ccc2c(c1)OCO2)C1CCCC1)Nc1ccc2[nH]c(=O)[nH]c2c1 | – | inconclusive: 14.1 µM [inhibitor, partial curve, poor fit] |
| N#Cc1c(C(F)(F)F)cc(-c2cccs2)nc1SCC(=O)Nc1ccccc1F | – | inconclusive: 35.5 µM [inhibitor, partial curve, poor fit] |
| COc1ccc(NC(=O)Cc2cccc3ccccc23)c2cccnc12 | – | inconclusive: 1.78 µM [inhibitor, partial curve, poor fit] |
| O=[N+]([O-])c1ccc(C2=Nn3c(Cn4nnc5ccccc54)nnc3SC2)cc1 | – | inconclusive: 17.8 µM [inhibitor, single point] |
| N#Cc1c(NCCCO)nc(-c2ccco2)c2c1CCCC2 | – | inconclusive: 31.6 µM [inhibitor, partial curve, poor fit] |
| CCOC(=O)C1(C/C=C/c2ccccc2)CCCNC1 (configuration not stated) | – | inconclusive: 28.2 µM [inhibitor, partial curve, poor fit] |
| CCc1ccc2c(c1)-c1ccccc1S(=O)(=O)N2CC(=O)N1CCOCC1 | inactive: 14.7% | – |
| Cc1ccc(OCC(=O)Nc2cccc(OCc3cc(=O)n4cccc(C)c4n3)c2)cc1C | – | inconclusive: 1.41 µM [inhibitor, partial curve, poor fit] |
| CCn1cc2c(n1)-c1c(oc(C(=O)Nc3cccc(C)c3C)c1C)CC2 | – | inconclusive: 35.5 µM [inhibitor, partial curve, poor fit] |
| Cc1ccc(/C=C/c2ccc3cc(C)ccc3n2)cc1 | inactive: -0.191% | – |
| COc1ccc(OCC(=O)OCc2cc(=O)n3nc(-c4cccs4)sc3n2)cc1 | – | inconclusive: 15.8 µM [inhibitor, partial curve, poor fit] |
| CCCc1ccc(S(=O)(=O)N2CCN(C3CCN(CCOC)C3=O)CC2)cc1 (configuration not stated) | inactive: 28.8% | – |
| COc1cc(NC(=O)CCSc2nc(-c3ccco3)cc(C(F)(F)F)n2)cc(OC)c1OC | inactive: -7.75% | – |
| CC(=O)N1CCC(NC[C@H]2Cn3c(-c4ccc5c(c4)OCCO5)cnc3CO2)CC1 | – | inconclusive: 28.2 µM [inhibitor, single point] |
| COCCCNC(=O)c1ccc(-n2c(-c3ccccc3)cc3c2CCCC3)cc1 | – | inconclusive: 31.6 µM [inhibitor, partial curve, poor fit] |
| Cc1ccc(-c2cc(C(=O)NCc3c(C)cc(C)[nH]c3=O)c3c(c2)N(C)CCO3)cc1 | – | inconclusive: 7.94 µM [inhibitor, single point] |
| COC(=O)c1ccc(C)c(NC(=O)Cc2cc(C(C)=O)ccc2OC)c1 | inactive: -8.07% | – |
| O=C(CCCN1C(=O)/C(=C/c2ccccc2Cl)SC1=S)NNC(=O)c1cccnc1 | – | inconclusive: 2.51 µM [inhibitor, full curve, poor fit] |
| O=C(Cn1c(=O)c2c(ncn2C2CCCC2)n(Cc2ccccc2)c1=O)NCc1cccc(Cl)c1 | inactive: -15.5% | – |

| Compound | activity change, negative = inhibition | Potency |
| --- | --- | --- |
| CC(=O)N1CC2(CCCN(C3COC3)C2)Cc2ccccc21 (configuration not stated) | – | inconclusive: 126 µM [inhibitor, partial curve, poor fit] |
| O=C(NCc1nnc2n1C(C(=O)O)CC2)c1ccc2c(c1)OC(F)(F)O2 (configuration not stated) | – | active: 25.1 µM |
| COc1ccc(N2CCC(NC(=O)c3ccc4nc[nH]c4c3)C2=O)cc1 (configuration not stated) | inactive: 17.6% | – |
| Cc1ccc(NC(=O)CCCn2c(=O)c3cccn3c3ccccc32)cc1C | – | inconclusive: 28.2 µM [inhibitor, single point] |
| CC(C)CC(=O)n1nc(-c2cccnc2)nc1NCc1ccc(F)cc1 | – | inconclusive: 1.78 µM [inhibitor, full curve, poor fit] |
| CCCOCC(=O)N1CCCC(c2cc(N3CCCC3)nc(C)n2)C1 (configuration not stated) | inactive: 16.8% | – |
| CC1CCC(NC(=O)c2ccc3c(c2)CCCC3)CC1 (configuration not stated) | inactive: -9.34% | – |
| Cc1cnc(C(=O)N2CCC3(CC2)CC(N(Cc2ccccc2)C2CC2)CCO3)cn1 (configuration not stated) | inactive: -21.4% | – |
| CCC1(C)Cc2c(sc3nc(SC)nc(N4CCCCC4)c23)CO1 (configuration not stated) | inactive: 11.9% | – |
| CCCCNC(=S)Nc1ccc(Br)c(C)c1 | inactive: 11.2% | – |
| COC(=O)Cn1c(=O)c2c3c(sc2n(Cc2ccc(F)cc2)c1=O)COC(C)(C)C3 | inactive: 7.18% | – |
| COc1ccc(C2Cn3nnc(-c4nc(-c5ccc(C)cc5)no4)c3CO2)cc1 (configuration not stated) | – | inconclusive: 39.8 µM [inhibitor, single point] |
| COc1ccc(OCc2cc(C(=O)N3CCCC(O)C3)no2)c2ccccc12 (configuration not stated) | – | inconclusive: 22.4 µM [inhibitor, single point] |
| O=C(c1ccc2c(c1)N(Cc1ccc(F)cc1)C(=O)c1ccccc1S2(=O)=O)N1CCN(Cc2ccccc2)CC1 | – | inconclusive: 6.31 µM [inhibitor, partial curve, poor fit] |
| CCOc1ccc(C(=O)Nc2cccc(NC(=O)c3ccc(C(C)(C)C)cc3)c2)cc1Br | – | inconclusive: 25.1 µM [inhibitor, partial curve, poor fit] |
| O=C(c1occc1-c1ccccc1)N1CCN(S(=O)(=O)c2c(F)cccc2F)CC1 | inactive: 5.48% | – |
| COP(=O)(OC)c1nc(-c2ccc(C(C)(C)C)cc2)oc1NCc1ccco1 | – | inconclusive: 39.8 µM [inhibitor, single point] |
| Cc1cc(C(=O)NC2CCCC2)c2c(C3CCNCC3)noc2n1 | inactive: 7.99% [at 149 µM] | – |
| COc1ccc(-c2nc(C3CC3)nc3c2CCN(Cc2ccc(F)cc2)CC3)cc1 | – | inconclusive: 22.4 µM [inhibitor, full curve, poor fit] |
| CCC1Oc2ccc(NC(=O)c3ccccc3OC)cc2CN(Cc2ccc(OC)cc2)C1=O (configuration not stated) | – | inconclusive: 14.1 µM [inhibitor, partial curve] |
| C=CCN(CC=C)Cc1c(C(=O)N2CCN(C3CCCCC3)CC2)nc2ccccn12 | – | inconclusive: 10 µM [inhibitor, partial curve] |

— PubChem BioAssay AID1347165 (National Center for Advancing Translational Sciences (NCATS), 2019)
